Measured values published in article PMC6919601, “Identification of Plasmodium dipeptidyl aminopeptidase allosteric inhibitors by high throughput screening” (PLoS ONE, 2019).
Out of some 110,000 compounds screened, about 230 (0.21%) showed an effect of 50% or more. This is one part of the list. *1 amine or outer side, *2 acyl side, *3 side chain or, on linkers, in order; H or OH if unused. Where a SMILES comes first, the peptide text is derived from it. [ ]: non-standard residue; d: D form. The star is where a group is joined. aIle = CC[C@@H](C)[C@H](N)C(=O)O; hPhe = N[C@@H](CCc1ccccc1)C(=O)O; CO = O=C([*:1])[*:2]; NHBn = c1ccc(CN*)cc1; CH2F = FC*

Biological target: DPAP1 (Plasmodium falciparum, UniProt Q8IIJ9)
Sequence (Q8IIJ9 whole entry, looked up): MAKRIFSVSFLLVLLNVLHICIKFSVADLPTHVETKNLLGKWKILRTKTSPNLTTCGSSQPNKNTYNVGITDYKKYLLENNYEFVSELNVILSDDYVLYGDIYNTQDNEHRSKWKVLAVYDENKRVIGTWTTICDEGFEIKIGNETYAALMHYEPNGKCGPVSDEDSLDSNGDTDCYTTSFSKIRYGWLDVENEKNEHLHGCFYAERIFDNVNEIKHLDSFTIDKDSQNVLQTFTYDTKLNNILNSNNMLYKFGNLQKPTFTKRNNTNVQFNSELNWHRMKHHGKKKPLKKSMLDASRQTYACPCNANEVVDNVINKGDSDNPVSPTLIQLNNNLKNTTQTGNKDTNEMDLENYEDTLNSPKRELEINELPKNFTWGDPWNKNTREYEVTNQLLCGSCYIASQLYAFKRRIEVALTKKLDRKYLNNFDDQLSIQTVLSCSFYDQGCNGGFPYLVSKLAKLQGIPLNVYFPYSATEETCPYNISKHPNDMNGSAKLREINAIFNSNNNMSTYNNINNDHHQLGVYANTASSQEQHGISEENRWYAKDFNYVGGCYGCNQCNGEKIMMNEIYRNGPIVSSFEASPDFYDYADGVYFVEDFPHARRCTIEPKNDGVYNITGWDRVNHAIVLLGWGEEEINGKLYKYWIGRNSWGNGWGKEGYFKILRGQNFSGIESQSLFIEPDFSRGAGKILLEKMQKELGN
Experiment: primary screen, percent inhibition; read by cleavage of a fluorogenic dipeptide substrate; higher = more effect of the substance
Parameters: species or system P. falciparum D10 trophozoite lysates; single well
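Further: 30 min substrate incubation versus DMSO and 10 µM JCP410 controls.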

Row | Structure (SMILES) | % Inhibition @ 10 uM
1 | O=C(Nc1ccccc1)Nc1cc(Cl)cc(Cl)c1 | -0.414%
2 | O=c1oc2ccccc2c2c1ncn2C1CCCCC1 | -5.65%
3 | Cc1ccc2onc(CNC(=O)N3CCN(C4CCCCC4)CC3)c2c1 | 2.99%
4 | CCCSc1nc2c(c(=O)[nH]c(=O)n2C)n1Cc1ccc(Cl)cc1 | -6.36%
5 | O=C1C(=Cc2ccc(Br)o2)C(=O)c2ccccc21 | -0.178%
6 | Cn1c2ccccc2c2c(C(=O)NCCCN3CCc4ccccc4C3)cn(C3CCCC3)c(=O)c21 | -3.39%
7 | CC(=O)N(C)c1ccc(NC(=O)COc2ccc(Cl)cc2Cl)cc1 | 5.63%
8 | CCCCN(C)C(=O)/C(=C/c1cn(CC)c2ccccc12)NC(=O)c1ccc(C)cc1 | -7.27%
9 | CC(C)Cn1cc(C(=O)NCc2ccc3c(c2)OCO3)c2c3ccccc3n(C)c2c1=O | -3.12%
10 | Cc1ccc(S(=O)(=O)N(CCC(C)(C)c2ccccc2)CC(=O)O)cc1 | -5.46%
11 | O=S1(=O)C[C@@H](O)[C@H](Nc2ccccc2)C1 | 0.132%
12 | C=CCN(CC=C)C(=O)Nc1ccc2nc(C)sc2c1 | 6.63%
13 | Cn1c(CNc2ccccc2O)nc2ccccc21 | -4.98%
14 | CC(=O)N1CCC(N2CCN(CCO)CC2)CC1 | -3.8%
15 | COc1ccccc1C(=O)N1CCN(S(=O)(=O)c2ccc(Cl)cc2)CC1 | -7.18%
16 | Cc1ccc(OCC(=O)Nc2nccs2)c(C)c1 | 3.24%
17 | CCOCCCNC(=O)Cn1ncc2c(C)n(Cc3ccccc3F)c(C)c2c1=O | -2.17%
18 | CC1(C)[C@H]2CC=C(CN3CCCC3CO)[C@@H]1C2 (stereo partly shown) | -3.5%
19 | COc1ccc(NC(=O)c2cnn3c2NC(c2ccc(F)cc2)CC3C(F)(F)F)c(OC)c1 (stereo not shown) | 7.06%
20 | O=C1c2[nH]nc(-c3ccccc3O)c2C(c2ccccc2F)N1CCO (stereo not shown) | 3.62%
21 | CC(C)C[C@H](NC(=O)[C@H](CC(C)C)NC(=O)c1ccc(-c2csc(N=C(N)N)n2)cc1)C(=O)O | -3.04%
22 | COc1cc(CNc2ccc3[nH]c(O)nc3c2)ccc1OCc1cccs1 | 4.76%
23 | C=CCn1c(Sc2nc(C)cs2)nc2c1c(=O)[nH]c(=O)n2C | 2.41%
24 | CC(C)NC(=O)CSCc1cccc(Br)c1 | -5.47%
25 | CCCN1CCN(c2ncnc3scc(-c4ccccc4)c23)CC1 | 0.219%

Row | Structure (SMILES) | % Inhibition @ 10 uM
26 | Cn1ccnc1C(O)(c1ccccc1)c1nccn1C | 1.43%
27 | COc1ccc(Br)cc1CN1CCN(C(=O)c2ccncc2)CC1 | 2.73%
28 | CCCCOc1ccc(C(=O)NC(C)C2COc3ccccc3O2)cc1OC (stereo not shown) | 5.53%
29 | COc1ccc(-c2[nH]c3ccccc3c2SCCNC(=O)c2ccco2)cc1 | -6.5%
30 | CC(C)=CCCCCCCN1CCCCC1CCO (stereo not shown) | -6.62%
31 | O=S(=O)(NCc1ccccc1Cl)c1ccc(-c2cc(C(F)(F)F)no2)s1 | 4.55%
32 | COc1c(Cl)cc(Cl)cc1C(=O)Nc1ccccc1O | 2.27%
33 | COc1ccc(CNC(=O)c2cc(-c3ccccc3O)on2)cc1 | -3.77%
34 | CC1CN(Cc2nc3c(c(=O)n(C)c(=O)n3C)n2Cc2cccc3ccccc23)CC(C)O1 (stereo not shown) | 1.23%
35 | CCC1=NC(c2ccccc2)(c2ccccc2)c2ccccc2O1 | 5.66%
36 | O=C(Nc1cccc(NC(=O)c2ccco2)n1)c1ccco1 | 3.56%
37 | CCC(=O)/N=C(\NC(=O)CC)Nc1nc(C)c2cc(OC)ccc2n1 | -1.44%
38 | Cc1cc(OCC(=O)NCc2ccc(F)cc2)ccc1Cl | 6.65%
39 | CCOc1ccc(C2C3=C(O)CC(C)(C)CC3=Nc3ncnn32)cc1OC (stereo not shown) | -7.08%
40 | c1ccc(CCN2CCC(NC3C4CC5CC(C4)CC3C5)CC2)cc1 (stereo not shown) | 0.0792%
41 | C=CCOc1ccc(/C=C2\SC(=O)N(Cc3ccc(F)cc3)C2=O)cc1 | -7.18%
42 | Cc1ccc(C2C(=O)N(C3CCCC3)CC(=O)N2CC2COc3ccccc3O2)cc1 (stereo not shown) | -5.92%
43 | CCCCNC(=O)C1Sc2nnc(-c3ccccc3)n2NC1c1ccc(C)cc1 (stereo not shown) | 1.72%
44 | Cc1ccc(N2C(=O)C3ON(c4ccccc4)C(c4ccco4)C3C2=O)cc1 (stereo not shown) | -2.53%
45 | Cc1cccc(/N=C/c2c(O)[nH]c3ccccc23)n1 | -5.62%
46 | Cc1ccc(N(CC(=O)Nc2ccc(CC#N)cc2)S(=O)(=O)c2ccccc2)c(C)c1 | -6.77%
47 | CC[C@@H](C)[C@H](NC(=O)NCc1ccccc1)C(=O)N[C@@H](CCc1ccccc1)C(=O)CF ({NHBn-CO}-[aIle]-[hPhe]-CH2F) | 0.079%
48 | Clc1cccc(Cl)c1CNc1ccc(CNc2nc[nH]n2)cc1 | 2.48%
49 | Oc1ccc(Br)cc1CN1CCN(Cc2ccccc2C(F)(F)F)CC1 | -5.28%
50 | O=C(CC(c1ccccc1)c1ccccc1)N1CCN(c2ncccn2)CC1 | -1.24%

Row | Structure (SMILES) | % Inhibition @ 10 uM
51 | COc1ccc(C(=O)NCCCCCC(=O)O)cc1 | 3.66%
52 | Cc1ccsc1-c1nnc2n(Cc3ccccc3)c(=O)c3ccccc3n12 | 0.00665%
53 | C#CCSc1ccccc1C(=O)O | 4.88%
54 | COc1ccc(-c2c(Cc3ccccc3)nn3c(C)cc(C)nc23)cc1 | -1.99%
55 | CC[n+]1c(C=C2C=CN(C)C=C2)ccc2cc(C)ccc21 | 21.3%
56 | CC(C)C[C@H](NC(=O)N1CCCCCC1)C(=O)NCC#N | 2.87%
57 | Cn1cc(/C=C2/SC(Nc3ccccc3)=NC2=O)c2ccccc21 | -1.89%
58 | Cc1ccc(C2OC3(C(=O)c4ccccc4C3=O)C3C(=O)N(c4ccc(F)c(Cl)c4)C(=O)C23)cc1 (stereo not shown) | 2.6%
59 | FC(F)(F)c1cc(-c2ccc3c(c2)OCO3)nc(NC2CCCCC2)n1 | -2.95%
60 | O=C(COc1ccc2ccccc2c1Br)Nc1ccc(S(=O)(=O)N2CCCC2)cc1 | -0.305%
61 | CCn1c(/C=N/n2cnnc2)nc2ccccc21 | 4.35%
62 | c1cc2c(cc1CN1CCC(N3CCCCC3)CC1)OCO2 | -4.6%
63 | Cc1nc2ccc(Cl)cc2c2c(N)c3ccccc3n12 | 66%
64 | CCN1C(=O)/C(=C/c2ccc(C)o2)S/C1=N/c1ccc(OC)cc1 | -1.57%
65 | CN1CCN(CCCNC(=O)CCCn2c(=O)c3cccn3c3cccnc32)CC1 | -2.15%
66 | Cc1cc(=O)n2nc(N(C)CC(=O)NCc3ccc(OC(C)C)cc3)sc2n1 | 1.38%
67 | Cc1ccc(CN(C(=O)C2C(C=C(Cl)Cl)C2(C)C)C2CCS(=O)(=O)C2)o1 (stereo not shown) | -2.85%
68 | CCN1CCCC1CNC(=O)CCn1c(=O)c2cccn2c2cccnc21 (stereo not shown) | 1.77%
69 | O=C(O)[C@@H]1CSC(c2ccc([N+](=O)[O-])cc2)N1 (stereo partly shown) | -6.25%
70 | CCCC1CCc2c(sc(NC(=O)c3cccs3)c2C(N)=O)C1 (stereo not shown) | 8.27%
71 | COc1ccc(NC(=O)c2ccc(OC(C)C)cc2)cc1 | -5.6%
72 | CC1CCCC(NC(=O)C2CCN(c3ncnc4c3sc3cccc(F)c34)CC2)C1C (stereo not shown) | -0.637%
73 | CCCC[C@H](NC(=O)[C@H](CC(C)C)NC(=O)OCc1ccccc1)C(=O)CC(=O)N1CCCC1 | 1.35%
74 | O=C(Nc1c(-c2ccccc2)nc2sccn12)c1ccccc1 | -5.51%
75 | O=C(Nc1nccs1)C(Cc1ccccc1)N1C(=O)C2C3C=CC(C3)C2C1=O (stereo not shown) | 1.12%

Row | Structure (SMILES) | % Inhibition @ 10 uM
76 | COc1ccc(S(=O)(=O)N(C)CC(=O)Nc2ccccc2C(F)(F)F)cc1OC | -0.891%
77 | CC1CC(C)CN(C(=O)Cn2ncc3c4ccccc4nc-3c2O)C1 (stereo not shown) | 3.5%
78 | O=C(COc1ccc(Cl)cc1)NCc1nnc(SCC(=O)NCC2CCCO2)o1 (stereo not shown) | 0.163%
79 | CCOc1ccc(C2CC(=O)N3CN(C)CSC3=C2C#N)cc1OC (stereo not shown) | 47.5%
80 | OCCN1CCN(Cc2cccc(Cl)c2)CC1 | 3.85%
81 | Cc1cc(NC(=O)c2cc(-c3ccccc3O)no2)nn1CC(=O)N1CCOCC1 | 0.526%
82 | CCC[C@H](NC(=O)C1(NC(=O)c2ccc(C(F)(F)F)cc2)CCCCC1)C(=O)c1nc2ccccc2o1 | -8.26%
83 | CN1CCN(CCCNC(=O)c2nn(C)c3c2CS(=O)(=O)c2ccccc2-3)CC1 | 1.51%
84 | O=C(c1ccco1)N1CCN(C(=O)c2ccc(CS(=O)Cc3ccc(Cl)cc3)o2)CC1 (stereo not shown) | 3.88%
85 | Cc1sc2nc3c4ccccc4c(NCC4CCCO4)nn3c(=O)c2c1C (stereo not shown) | -2.09%
86 | CCN(CC)C(=O)/C(=C/c1cn(CC)c2ccccc12)NC(=O)c1cc(OC)c(OC)c(OC)c1 | -0.0235%
87 | CCOc1ccc(CCNCc2c(C(=O)O)c(C)n(Cc3ccc(F)cc3)c2C)cc1 | -1.92%
88 | COc1ccc2nc(NC(=O)CNS(=O)(=O)c3cccs3)sc2c1 | -2.12%
89 | Cc1ccc(NC2=NC(=O)CC(C(=O)Nc3cc(C)cc(C)c3)S2)cc1 (stereo not shown) | 16.7%
90 | Cc1ccccc1CNCc1ccc(C(=O)O)s1 | -0.0309%
91 | O=C1CC(c2ccccc2)c2cc(Cl)ccc2O1 (stereo not shown) | -0.0735%
92 | CC1=C(C(=O)Nc2ccc(Br)cn2)C(c2ccccc2C)C2=C(O)CCCC2=N1 (stereo not shown) | 2.7%
93 | CCCn1c(CCCNC(=O)c2ccc(F)cc2)nc2ccccc21 | 6.03%
94 | Cc1ccc(CN2C(=O)N/C(=C/c3cccc(C(F)(F)F)c3)C2=O)cc1 | 0.755%
95 | Cc1ccc(N2C(=O)c3ccc(C(=O)c4ccc5c(c4)C(=O)N(c4ccc(C)cc4O)C5=O)cc3C2=O)c(O)c1 | 1.9%
96 | CCN1CCN(Cc2cccc3ccccc23)CC1 | -0.127%
97 | Cc1c(CNC2CCCCC2C)c(C(=O)O)c(C)n1Cc1ccccc1F (stereo not shown) | -0.23%
